Reference: publication PMC4336329 (PLoS ONE, 2015)
The campaign covered roughly 310,000 compounds. About 14,000 (4.5%) showed an effect of 50% or more. Effects have a minus sign here. The list shows a part of the results.

These compounds were tested against human ether-à-go-go-related gene (hERG) potassium channel (human, UniProt Q12809) (assay: primary screen, population patch clamp on CHO cells stably expressing hERG).
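Further: peak tail current of the secondary pulse compared with the same well before compound.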

Chain of human ether-à-go-go-related gene (hERG) potassium channel (Q12809 whole entry, looked up): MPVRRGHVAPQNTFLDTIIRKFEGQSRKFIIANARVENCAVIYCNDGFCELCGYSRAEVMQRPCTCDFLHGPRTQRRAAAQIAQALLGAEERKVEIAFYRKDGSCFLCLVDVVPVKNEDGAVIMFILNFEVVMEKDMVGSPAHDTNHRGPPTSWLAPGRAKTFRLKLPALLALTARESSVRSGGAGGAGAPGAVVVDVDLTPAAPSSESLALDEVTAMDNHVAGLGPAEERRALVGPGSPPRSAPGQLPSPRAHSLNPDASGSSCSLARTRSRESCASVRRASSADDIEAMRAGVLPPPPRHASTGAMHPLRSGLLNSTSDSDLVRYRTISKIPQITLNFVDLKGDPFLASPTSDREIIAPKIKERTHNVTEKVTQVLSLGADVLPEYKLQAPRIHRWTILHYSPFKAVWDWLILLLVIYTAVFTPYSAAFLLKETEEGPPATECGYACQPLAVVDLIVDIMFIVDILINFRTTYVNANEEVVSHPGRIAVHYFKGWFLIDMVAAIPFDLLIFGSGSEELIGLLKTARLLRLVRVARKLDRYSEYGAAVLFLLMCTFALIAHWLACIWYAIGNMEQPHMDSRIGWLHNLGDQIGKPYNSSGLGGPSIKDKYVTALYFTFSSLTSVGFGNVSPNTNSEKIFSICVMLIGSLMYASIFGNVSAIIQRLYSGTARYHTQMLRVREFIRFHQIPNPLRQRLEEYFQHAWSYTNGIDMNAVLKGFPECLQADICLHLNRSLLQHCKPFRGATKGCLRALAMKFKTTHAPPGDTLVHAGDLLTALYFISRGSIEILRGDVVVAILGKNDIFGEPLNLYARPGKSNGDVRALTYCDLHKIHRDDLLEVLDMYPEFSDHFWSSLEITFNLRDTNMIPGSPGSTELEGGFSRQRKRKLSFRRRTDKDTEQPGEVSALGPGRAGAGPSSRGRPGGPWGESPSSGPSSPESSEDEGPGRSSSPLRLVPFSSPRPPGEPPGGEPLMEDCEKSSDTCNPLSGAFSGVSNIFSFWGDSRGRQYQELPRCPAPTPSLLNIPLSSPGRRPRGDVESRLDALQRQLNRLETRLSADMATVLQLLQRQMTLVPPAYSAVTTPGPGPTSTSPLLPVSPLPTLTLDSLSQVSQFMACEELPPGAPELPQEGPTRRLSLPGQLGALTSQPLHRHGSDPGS

**Q.** For `O=C(Nc1cccc(Cl)c1)N1CCN(C2c3ccccc3-c3ccccc32)CC1`, which “hERG current change (%, negative = inhibition) at 10uM” value is on record?
**A.** The value was 3.52%.

**Q.** `Cn1c(SCC(=O)Nc2sc3c(c2C#N)CCC3)nnc1C1COc2ccccc2O1` (stereo not shown) was tested. Which “hERG current change (%, negative = inhibition) at 10uM” value did it give?
**A.** Its value is -2.94%.

**Q.** For `CN(C)/C(=N\O)c1c(Cl)cccc1Cl`, which “hERG current change (%, negative = inhibition) at 10uM” value is on record?
**A.** Its value is 14%.

**Q.** For `CC(=O)NC(=S)Nc1ccc(NC(=O)c2cccnc2Cl)cc1`, which “hERG current change (%, negative = inhibition) at 10uM” value is on record?
**A.** The value was -0.499%.

**Q.** How did the “hERG current change (%, negative = inhibition) at 10uM” value turn out when `CCOC(=O)N1CCC(NC(=O)CS(=O)(=O)Cc2nc(-c3cccc(Cl)c3)oc2C)CC1` was run?
**A.** Its value is -18.3%.

**Q.** Which “hERG current change (%, negative = inhibition) at 10uM” value does the source give for `O=C(COc1ccccc1C(=O)N/N=C\c1ccc(O)c(O)c1)N/N=C/c1ccc(O)c(O)c1` here?
**A.** The value was -1.33%.

**Q.** For `Cc1ccc(SCC(=O)N2CCc3ccccc32)cc1`, which “hERG current change (%, negative = inhibition) at 10uM” value is on record?
**A.** The value was 7.96%.

**Q.** How did the “hERG current change (%, negative = inhibition) at 10uM” value turn out when `COCCNC(=O)C(c1ccc(C)cc1)N(Cc1ccco1)C(=O)CCC(=O)Nc1ccccn1` (stereo not shown) was run?
**A.** The value was 11.6%.

**Q.** For `O=C(CSc1ncnc2nc[nH]c12)Nc1ccc(Br)cc1Cl`, which “hERG current change (%, negative = inhibition) at 10uM” value is on record?
**A.** The value was -0.422%.

**Q.** Which “hERG current change (%, negative = inhibition) at 10uM” value does the source give for `Cc1ccc(C(=O)NNC(=O)c2ccccc2-n2cccc2)cc1` here?
**A.** Its value is 19.8%.

**Q.** Which “hERG current change (%, negative = inhibition) at 10uM” value does the source give for `COc1ccccc1NC(=O)Nc1ccc(S(=O)(=O)Nc2onc(C)c2C)cc1` here?
**A.** Its value is 12.7%.

**Q.** For `CCOc1ccc(-c2noc(CCC(=O)NCC3CCCO3)n2)cc1OC` (stereo not shown), which “hERG current change (%, negative = inhibition) at 10uM” value is on record?
**A.** The value was 0.963%.

**Q.** `CCOC(=O)C1CCN(C(=O)COC(=O)c2nn(C)c(=O)c3ccccc23)CC1` was tested. Which “hERG current change (%, negative = inhibition) at 10uM” value did it give?
**A.** The value was -18.8%.

**Q.** Which “hERG current change (%, negative = inhibition) at 10uM” value does the source give for `C=CCOC(=O)CSCC(NC(=O)OC(C)(C)C)C(=O)OCC` (stereo not shown) here?
**A.** Its value is -0.265%.

**Q.** `FC(F)(F)c1cccc(Cc2noc(CN3CCCC3)n2)c1` was tested. Which “hERG current change (%, negative = inhibition) at 10uM” value did it give?
**A.** Its value is 15.6%.

**Q.** For `CCCCOCCCNC(=O)c1ccc(OCC)cc1`, which “hERG current change (%, negative = inhibition) at 10uM” value is on record?
**A.** The value was -13.8%.

**Q.** For `O=C1N/C(=N/Nc2ccccc2)S/C1=C\c1ccccc1`, which “hERG current change (%, negative = inhibition) at 10uM” value is on record?
**A.** The value was -1.16%.

**Q.** `COc1ccc(CCNS(=O)(=O)c2ccc3oc(C(=O)O)c(C)c3c2)cc1OC` was tested. Which “hERG current change (%, negative = inhibition) at 10uM” value did it give?
**A.** The value was 0.0936%.

**Q.** With `COC(=O)c1nnn(-c2ccc(Cl)c(Cl)c2)c1C(=O)OC` as the compound, how does the “hERG current change (%, negative = inhibition) at 10uM” value read?
**A.** The value was 4.96%.

**Q.** How did the “hERG current change (%, negative = inhibition) at 10uM” value turn out when `COCCN(CCOC)c1nc(-c2ccc(Cl)cc2)nc2ccccc12` was run?
**A.** Its value is -5.82%.

**Q.** Which “hERG current change (%, negative = inhibition) at 10uM” value does the source give for `O=c1c2ccccc2oc2ccc(Oc3ccccc3)cc12` here?
**A.** Its value is 11.3%.

**Q.** Which “hERG current change (%, negative = inhibition) at 10uM” value does the source give for `C=CCOc1c(Br)cc(/C=N/NC(=O)Cc2ccc(C(F)(F)F)cc2[N+](=O)[O-])cc1OC` here?
**A.** The value was 21.1%.

**Q.** For `O=C(c1cccc(OCc2ccccc2)c1)N1CCOCC1`, which “hERG current change (%, negative = inhibition) at 10uM” value is on record?
**A.** Its value is -5.23%.

**Q.** `Cc1ccc(N(CC(=O)Nc2ccccc2C(=O)N2CCOCC2)S(C)(=O)=O)cc1` was tested. Which “hERG current change (%, negative = inhibition) at 10uM” value did it give?
**A.** Its value is 10.5%.

**Q.** For `COc1ccccc1CCNC(=O)c1ccc(NC(=O)CC2SC(N3CCCCC3)=NC2=O)cc1` (stereo not shown), which “hERG current change (%, negative = inhibition) at 10uM” value is on record?
**A.** Its value is 8.03%.

**Q.** `COc1ccc(C2CC(c3cccs3)=NN2C(=O)COC(=O)C2CCCCC2)cc1OC` (stereo not shown) was tested. Which “hERG current change (%, negative = inhibition) at 10uM” value did it give?
**A.** Its value is -18.1%.

**Q.** For `Cn1nnc2cc(C(=O)NC3CCCCC3)ccc21`, which “hERG current change (%, negative = inhibition) at 10uM” value is on record?
**A.** The value was -6.61%.

**Q.** For `NC(=[NH2+])SCC1=CCS(=O)(=O)C1.[Br-]`, which “hERG current change (%, negative = inhibition) at 10uM” value is on record?
**A.** The value was 17.4%.

**Q.** `O=C1Cc2cc(S(=O)(=O)N3CCN(c4ccccc4)CC3)ccc2N1` was tested. Which “hERG current change (%, negative = inhibition) at 10uM” value did it give?
**A.** The value was 14.1%.

**Q.** With `CC(=O)Nc1ccc(S(=O)(=O)NCc2nc(-c3cccc(C)c3)no2)cc1` as the compound, how does the “hERG current change (%, negative = inhibition) at 10uM” value read?
**A.** The value was -0.261%.

**Q.** `CNC(C)C#Cc1ccc2oc3cccc(OC)c3c(=O)c2c1` (stereo not shown) was tested. Which “hERG current change (%, negative = inhibition) at 10uM” value did it give?
**A.** Its value is -27%.

**Q.** `Cc1occc1C(=O)N1CCCC(Nc2ccc(F)c(F)c2)C1` (stereo not shown) was tested. Which “hERG current change (%, negative = inhibition) at 10uM” value did it give?
**A.** The value was -5.18%.

**Q.** For `O=C(COc1ccccc1Br)NCc1ccccn1`, which “hERG current change (%, negative = inhibition) at 10uM” value is on record?
**A.** The value was -10.1%.

**Q.** `CCOC(=O)CNC(=O)C12CC3CC(CC(C3)C1)C2` was tested. Which “hERG current change (%, negative = inhibition) at 10uM” value did it give?
**A.** The value was 26.7%.

**Q.** How did the “hERG current change (%, negative = inhibition) at 10uM” value turn out when `Nc1nc(N)c2nc(CNc3ccc(C(=O)NC(CCC(=O)O)C(=O)O)cc3)cnc2n1` (stereo not shown) was run?
**A.** The value was 3.03%.

**Q.** Which “hERG current change (%, negative = inhibition) at 10uM” value does the source give for `O=C(COc1cccc(C(F)(F)F)c1)N1CCN(c2ccc(O)cc2)CC1` here?
**A.** Its value is -36.2%.

**Q.** `CCN(CC(=O)Nc1ccc(NC(C)=O)cc1)C(=O)c1n[nH]c(=O)c2ccccc12` was tested. Which “hERG current change (%, negative = inhibition) at 10uM” value did it give?
**A.** The value was -15.5%.

**Q.** For `Cc1ccc(S(=O)(=O)N(C)C)cc1NC(=O)CCNC(=O)c1ccccc1Cl`, which “hERG current change (%, negative = inhibition) at 10uM” value is on record?
**A.** The value was 8.56%.

**Q.** For `CCCCn1c(N)c(N(CC(C)C)C(=O)c2oc3ccc(OC)cc3c2C)c(=O)[nH]c1=O`, which “hERG current change (%, negative = inhibition) at 10uM” value is on record?
**A.** The value was 14.6%.

**Q.** Which “hERG current change (%, negative = inhibition) at 10uM” value does the source give for `CC1CC(C)CN(C(=O)c2ccc3c(c2)OCCO3)C1` (stereo not shown) here?
**A.** The value was -6.59%.

**Q.** With `Cc1ccc(NC2=CC(=O)CC(C)(C)C2)c(N)c1` as the compound, how does the “hERG current change (%, negative = inhibition) at 10uM” value read?
**A.** Its value is -7.92%.

**Q.** With `CCOc1ccc(-n2c(N)c(C(=O)NCC3CCCO3)sc2=S)cc1` (stereo not shown) as the compound, how does the “hERG current change (%, negative = inhibition) at 10uM” value read?
**A.** The value was -2.34%.

**Q.** For `Cc1ccc(NC(=O)Cn2nnc(C(=O)NCCc3ccccc3)c2N)c(C)c1`, which “hERG current change (%, negative = inhibition) at 10uM” value is on record?
**A.** Its value is 13%.
